Source: the supplement of paper PMC4166925
± gives the standard deviation of the averaged measurements. Whole data set: some 33,000 sequences, median “E-score (dimensionless, -0.5 to 0.5)” near -0.046, cut for the highest 2% near 0.36. The list shows a part of the results.

What follows are sequences tested on T1, SpTbr T-box DNA-binding domain (GST fusion) (assay: PBM E-score of 8-mer (E-score (dimensionless, -0.5 to 0.5)); Tbr is Tbrain of the sea star Patiria miniata (Pm) or the sea urchin Strongylocentrotus purpuratus (Sp); higher = stronger binding preference; most listed sequences are background and not binding sites). Conditions: the construct has about 5 more residues each side.
T1 sequence: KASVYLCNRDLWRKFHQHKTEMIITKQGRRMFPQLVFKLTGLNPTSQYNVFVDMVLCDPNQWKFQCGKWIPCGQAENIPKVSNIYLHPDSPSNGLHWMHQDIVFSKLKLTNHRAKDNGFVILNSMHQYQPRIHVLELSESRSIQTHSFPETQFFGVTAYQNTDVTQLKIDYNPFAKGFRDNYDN
Procedure: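 Universal protein-binding microarray (Agilent AMADID 016060, 60-bp probes with a 35-bp variable region) incubated with 200 nM GST-fused Strongylocentrotus purpuratus Tbr T-box DNA-binding domain (residues 362-554) in PBS pH 7.5. Scored for every ungapped 8-mer (given with its reverse complement) as E-score (range -0.5 to 0.5; >0.45 counts as bound) and Z-score of median probe intensity. Two replicate arrays (datasets 1 and 2).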
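Also: protein at 200 nM in PBS on universal double-stranded arrays.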

Sequence | PBM E-score of 8-mer
ATCATGCA | -0.259 ± 0.0071
GGACGAAC | -0.112 ± 0.075
CCGAATAC | -0.0835 ± 0.018
AAATAATG | -0.0772 ± 0.12
GCTAAGCA | -0.0675 ± 0.058
CGTTGTAA | -0.0727 ± 0.022
ACCCTGGC | 0.154 ± 0.072
GTAAGATA | -0.165 ± 0.06
ATATGGTA | -0.124 ± 0.02
AACGTAGT | -0.231 ± 0.047
CACATTGA | 0.129 ± 0.02
GATCACAA | 0.251 ± 0.0097
ATATACAA | -0.19 ± 0.052
TATCAAAA | -0.21 ± 0.061
ACTACATC | -0.0297 ± 0.028
CTCGTCAC | 0.389 ± 0.024
CAACTTTA | 0.0802 ± 0.025
GAAACGGC | -0.101 ± 0.093
CCAAGCAC | -0.109 ± 0.025
GCCCGAGA | 0.0371 ± 0.0059
CGAGTTAG | -0.115 ± 0.019
GACAGGGA | -0.0423 ± 0.006
AAAGCGTT | 0.0855 ± 0.062
CCCGTAGG | -0.126 ± 0.049
CTACACAA | -0.056 ± 0.022

Sequence | PBM E-score of 8-mer
GGCACCCA | 0.173 ± 0.021
ATAGCCGG | -0.203 ± 0.015
CCTCCATA | -0.14 ± 0.024
CGCTCCCA | -0.0368 ± 0.018
CCTAACTA | -0.0103 ± 0.095
GTTTGTAA | 0.0475 ± 0.044
CCCAGATC | 0.0162 ± 0.031
ACATTCTG | 0.0898 ± 0.021
CAAGAGTC | -0.191 ± 0.037
GCATAACC | -0.118 ± 0.015
ATACCCGG | 0.00351 ± 0.046
ATGGAAAC | -0.1 ± 0.021
CACTGGGG | -0.212 ± 0.047
CAGACAAA | -0.0589 ± 0.033
GCGTCGTA | -0.193 ± 0.052
CCTGCAGA | -0.106 ± 0.024
AACCGCCC | -0.139 ± 0.045
CACAATGC | 0.00438 ± 0.0047
GAAAGCAC | 0.0217 ± 0.045
ATGAATCG | -0.00836 ± 0.055
GCAGTGGA | -0.261 ± 0.065
ACACTTAG | 0.383 ± 0.038
AGCGGGAC | 0.00749 ± 0.035
GATTACGA | 0.0882 ± 0.03
GACTGCCC | -0.173 ± 0.018

Sequence | PBM E-score of 8-mer
GATGGAGC | 0.0377 ± 0.037
AAGGCTAA | -0.0496 ± 0.001
AGTTCTTC | -0.245 ± 0.0077
ACTACACG | 0.115 ± 0.024
ATCTTTTG | -0.329 ± 0.14
CGCTTCAA | 0.0845 ± 0.028
CCTTTCGA | -0.0209 ± 0.0015
GCGCTTTA | -0.0891 ± 0.051
CACGGCTA | 0.0881 ± 0.051
CTATGACC | -0.147 ± 0.085
TCGGACCA | -0.186 ± 0.062
AACTATCG | 0.0225 ± 0.067
GCGAGATA | 0.105 ± 0.0039
ACGAGAGC | 0.0323 ± 0.003
ACTAGCTA | -0.0165 ± 0.021
AGGGCTAA | -0.078 ± 0.017
AGTTACTA | -0.194 ± 0.0084
CGATCAAG | 0.103 ± 0.018
GACTAGGA | -0.106 ± 0.097
CTGGCCTA | -0.185 ± 0.024
GAGCAACA | 0.216 ± 0.05
CGGCGAGC | -0.222 ± 0.14
GCGATAAA | 0.171 ± 0.082
ACTGGGAG | -0.109 ± 0.022
CGAAGACA | 0.185 ± 0.0088

Sequence | PBM E-score of 8-mer
AGGCACTG | -0.215 ± 0.027
CCTGCAAG | 0.03 ± 0.041
TGACGGAA | 0.0973 ± 0.045
AGAGCCCT | -0.185 ± 0.0023
AACGCGCT | 0.22 ± 0.035
CCACTGGC | 0.0913 ± 0.048
GCAAATTA | -0.0268 ± 0.038
AAGTTGCC | 0.197 ± 0.029
ATGGCCCG | -0.221 ± 0.03
AAGGCTCA | -0.248 ± 0.053
CATTCGTA | -0.0369 ± 0.038
AGGGGTCA | -0.0738 ± 0.078
TACTCTAA | -0.249 ± 0.012
ACATCATG | -0.106 ± 0.054
GCTGACAC | 0.386 ± 0.039
AGCGGGGG | -0.0618 ± 0.1
CAGGCGAA | -0.0334 ± 0.076
AATAGTAA | -0.242 ± 0.059
ATGTTGGC | 0.0194 ± 0.013
AAGTGACC | 0.233 ± 0.041
CGAAGGCA | -0.0251 ± 0.047
CCTTTGAC | -0.00585 ± 0.066
CTCTTGGC | 0.0277 ± 0.019
CGCGTCAC | 0.277 ± 0.039
ATTTCAGG | -0.0292 ± 0.024

Sequence | PBM E-score of 8-mer
GCCATTGA | 0.0175 ± 0.076
CCAACTTA | -0.0979 ± 0.16
GAAGCTGC | 0.122 ± 0.036
AAGACTAA | -0.0658 ± 0.041
ATGTCACA | 0.3087 ± 0.00058
TGATGGAA | 0.117 ± 0.0081
AATGTGAG | 0.225 ± 0.027
GTTTAAAA | -0.163 ± 0.092
AGAATGCG | 0.0261 ± 0.086
AGCAGCCG | -0.124 ± 0.028
TCAGCCAA | -0.0806 ± 0.037
ATCTCGCA | 0.247 ± 0.024
CGACTGCC | 0.0376 ± 0.032
ATTAAACG | -0.122 ± 0.018
ACAGCTCG | 0.152 ± 0.048
GACCTTCA | -0.0627 ± 0.081
CTAGTAAA | -0.148 ± 0.0045
ACAGGCGA | 0.195 ± 0.051
CTATCGTC | 0.0527 ± 0.092
CTGGCTTC | -0.226 ± 0.022
ACGAAAAC | 0.105 ± 0.023
AAAGTCGT | 0.133 ± 0.015
AAGCGGCT | -0.139 ± 0.032
ATCCCAAC | -0.117 ± 0.15
CAAAACTG | 0.116 ± 0.019

Sequence | PBM E-score of 8-mer
AAGGACGT | -0.154 ± 0.034
TATGGGGA | -0.182 ± 0.014
ACATGCCG | -0.13 ± 0.024
TAGCGCTA | 0.222 ± 0.056
ATCGGTAC | -0.259 ± 0.038
ATCATAGA | -0.173 ± 0.071
CTGACGGA | 0.138 ± 0.075
ACACCAAG | 0.311 ± 0.018
AATCGAGC | -0.0815 ± 0.0076
AACTTCTG | 0.0311 ± 0.05
CCGCGTAC | -0.1114 ± 0.00088
ACCGACGC | 0.105 ± 0.058
CCAAGGGA | 0.0745 ± 0.0013
CACGGCGA | 0.0428 ± 0.086
CCTTCACA | 0.404 ± 0.0071
ACTACTCC | -0.139 ± 0.024
GATGTATA | -0.132 ± 0.071
TCCTGGAA | -0.327 ± 0.059
CCCACACC | 0.438 ± 0.033
GGTGTTCA | 0.262 ± 0.009
AGCAGCAT | -0.138 ± 0.066
CGAGCTGA | 0.0161 ± 0.0018
AGGTGACC | 0.151 ± 0.0043
GTACCTAC | -0.161 ± 0.04
ACCTGTTA | 0.325 ± 0.019

Sequence | PBM E-score of 8-mer
CTCACCGA | 0.0544 ± 0.017
ACTTTTGC | 0.121 ± 0.0038
CTAGCGTA | -0.0609 ± 0.029
AGACTAGC | -0.17123 ± 0.00013
AAGTTGCT | 0.155 ± 0.0092
ACAGGACA | 0.0815 ± 0.039
CGCACTGA | 0.0995 ± 0.013
GCTAAGGA | -0.0203 ± 0.016
ACCCGCCG | 0.034 ± 0.012
GGACACTA | -0.0848 ± 0.036
ACACCCAA | 0.3623 ± 0.0032
AGTATCGA | 0.039 ± 0.027
AGGCATTG | -0.17 ± 0.042
CGACAGCG | 0.113 ± 0.052
TACGAATA | -0.128 ± 0.063
AAGAAAAC | -0.105 ± 0.067
ATATCGAA | -0.151 ± 0.014
ATACGGAC | -0.151 ± 0.035
ACGATCTC | 0.0369 ± 0.034
AAGGTTCT | -0.0539 ± 0.023
CCTGGTTC | -0.0505 ± 0.015
CTATGTCC | -0.223 ± 0.027
